The list shows a part of the results. The list includes weakly bound sequences.
target: T1, MBP-FoxP3dN (UniProt Q99JB6); experiment: PD-seq (MBP pull-down with sequencing); conditions: 20 mM Tris-HCl pH 7.5, 100 mM NaCl, 1.5 mM MgCl2, 0.4 uM protein, 0.1 uM dsDNA library, 30 min, room temperature, amylose pull-down; high values mean tight binding; double strand, one strand shown
T1 sequence: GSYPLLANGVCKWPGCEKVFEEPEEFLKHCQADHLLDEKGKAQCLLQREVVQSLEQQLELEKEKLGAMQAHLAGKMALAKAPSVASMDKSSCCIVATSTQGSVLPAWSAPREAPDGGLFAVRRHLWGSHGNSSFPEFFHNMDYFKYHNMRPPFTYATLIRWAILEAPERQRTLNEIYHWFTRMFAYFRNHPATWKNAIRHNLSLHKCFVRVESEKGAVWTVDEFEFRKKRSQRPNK

| Sequence | binding signal (RPM ratio (pull-down/input)) |
| --- | --- |
| GATGATTGTTCTCCCAGCTGATGAATTTGCCCTGTCGAGTAAACAAATTTTCCTAATCTTTCTGTTCAAGCGCCATCTAC | 0.487 |
| GATGATTGTTCTCCCAGCTGATGAATTACGTACGTCGAGTAAACAAATTTTCCTAATCTTTCTGTTCAAGCGCCATCTAC | 0.524 |
| GATGATTGTTCTCCCAGCTGATGAATTGCGACACTCGAGTAAACAAATTTTCCTAATCTTTCTGTTCAAGCGCCATCTAC | 2.72 |
| GATGATTGTTCTCCCAGCTGATGAATTAGCGCCGTCGAGTAAACAAATTTTCCTAATCTTTCTGTTCAAGCGCCATCTAC | 0.621 |
| GATGATTGTTCTCCCAGCTGATGAATTGTTAGTCTCGAGTAAACAAATTTTCCTAATCTTTCTGTTCAAGCGCCATCTAC | 3.38 |
| GATGATTGTTCTCCCAGCTGATGAATTTTGGTGATCGAGTAAACAAATTTTCCTAATCTTTCTGTTCAAGCGCCATCTAC | 0.708 |
| GATGATTGTTCTCCCAGCTGATGAATTGGAGGTCTCGAGTAAACAAATTTTCCTAATCTTTCTGTTCAAGCGCCATCTAC | 0.401 |
| GATGATTGTTCTCCCAGCTGATGAATTGGATGATTCGAGTAAACAAATTTTCCTAATCTTTCTGTTCAAGCGCCATCTAC | 0.834 |
| GATGATTGTTCTCCCAGCTGATGAATTCCATGCTTCGAGTAAACAAATTTTCCTAATCTTTCTGTTCAAGCGCCATCTAC | 0.587 |
| GATGATTGTTCTCCCAGCTGATGAATTCGTGTCTTCGAGTAAACAAATTTTCCTAATCTTTCTGTTCAAGCGCCATCTAC | 1.11 |
| GATGATTGTTCTCCCAGCTGATGAATTGTGTTCTTCGAGTAAACAAATTTTCCTAATCTTTCTGTTCAAGCGCCATCTAC | 2.39 |
| GATGATTGTTCTCCCAGCTGATGAATTAATAACTTCGAGTAAACAAATTTTCCTAATCTTTCTGTTCAAGCGCCATCTAC | 0.453 |
| GATGATTGTTCTCCCAGCTGATGAATTCCCCAGGTCGAGTAAACAAATTTTCCTAATCTTTCTGTTCAAGCGCCATCTAC | 0.146 |
| GATGATTGTTCTCCCAGCTGATGAATTTTGAGTCTCGAGTAAACAAATTTTCCTAATCTTTCTGTTCAAGCGCCATCTAC | 1.7 |
| GATGATTGTTCTCCCAGCTGATGAATTATGGACATCGAGTAAACAAATTTTCCTAATCTTTCTGTTCAAGCGCCATCTAC | 0.579 |
| GATGATTGTTCTCCCAGCTGATGAATTATTTCCTTCGAGTAAACAAATTTTCCTAATCTTTCTGTTCAAGCGCCATCTAC | 0.385 |
| GATGATTGTTCTCCCAGCTGATGAATTGCTTTATTCGAGTAAACAAATTTTCCTAATCTTTCTGTTCAAGCGCCATCTAC | 1.09 |
| GATGATTGTTCTCCCAGCTGATGAATTGTTTCATTCGAGTAAACAAATTTTCCTAATCTTTCTGTTCAAGCGCCATCTAC | 0.91 |
| GATGATTGTTCTCCCAGCTGATGAATTCAACTGTTCGAGTAAACAAATTTTCCTAATCTTTCTGTTCAAGCGCCATCTAC | 0.472 |
| GATGATTGTTCTCCCAGCTGATGAATTAGATTGGTCGAGTAAACAAATTTTCCTAATCTTTCTGTTCAAGCGCCATCTAC | 1.93 |
| GATGATTGTTCTCCCAGCTGATGAATTCCACACCTCGAGTAAACAAATTTTCCTAATCTTTCTGTTCAAGCGCCATCTAC | 0.337 |

| Sequence | binding signal (RPM ratio (pull-down/input)) |
| --- | --- |
| GATGATTGTTCTCCCAGCTGATGAATTAGCTGCTTCGAGTAAACAAATTTTCCTAATCTTTCTGTTCAAGCGCCATCTAC | 0.674 |
| GATGATTGTTCTCCCAGCTGATGAATTCTTGCCTTCGAGTAAACAAATTTTCCTAATCTTTCTGTTCAAGCGCCATCTAC | 1.81 |
| GATGATTGTTCTCCCAGCTGATGAATTGTCGCCATCGAGTAAACAAATTTTCCTAATCTTTCTGTTCAAGCGCCATCTAC | 2.3 |
| GATGATTGTTCTCCCAGCTGATGAATTTGTTGCATCGAGTAAACAAATTTTCCTAATCTTTCTGTTCAAGCGCCATCTAC | 7.07 |
| GATGATTGTTCTCCCAGCTGATGAATTACAATGCTCGAGTAAACAAATTTTCCTAATCTTTCTGTTCAAGCGCCATCTAC | 0.958 |
| GATGATTGTTCTCCCAGCTGATGAATTGGTATGCTCGAGTAAACAAATTTTCCTAATCTTTCTGTTCAAGCGCCATCTAC | 1.79 |
| GATGATTGTTCTCCCAGCTGATGAATTTGTAGGATCGAGTAAACAAATTTTCCTAATCTTTCTGTTCAAGCGCCATCTAC | 1.85 |
| GATGATTGTTCTCCCAGCTGATGAATTAAGTCCGTCGAGTAAACAAATTTTCCTAATCTTTCTGTTCAAGCGCCATCTAC | 0.307 |
| GATGATTGTTCTCCCAGCTGATGAATTGATAGAGTCGAGTAAACAAATTTTCCTAATCTTTCTGTTCAAGCGCCATCTAC | 0.361 |
| GATGATTGTTCTCCCAGCTGATGAATTGCTGAATTCGAGTAAACAAATTTTCCTAATCTTTCTGTTCAAGCGCCATCTAC | 0.916 |
| GATGATTGTTCTCCCAGCTGATGAATTCAAGCAATCGAGTAAACAAATTTTCCTAATCTTTCTGTTCAAGCGCCATCTAC | 1.65 |
| GATGATTGTTCTCCCAGCTGATGAATTCGCGCCCTCGAGTAAACAAATTTTCCTAATCTTTCTGTTCAAGCGCCATCTAC | 0.701 |
| GATGATTGTTCTCCCAGCTGATGAATTACGGCGTTCGAGTAAACAAATTTTCCTAATCTTTCTGTTCAAGCGCCATCTAC | 1.34 |
| GATGATTGTTCTCCCAGCTGATGAATTCGAGTACTCGAGTAAACAAATTTTCCTAATCTTTCTGTTCAAGCGCCATCTAC | 0.707 |
| GATGATTGTTCTCCCAGCTGATGAATTTATCAATTCGAGTAAACAAATTTTCCTAATCTTTCTGTTCAAGCGCCATCTAC | 0.676 |
| GATGATTGTTCTCCCAGCTGATGAATTGGTTTCCTCGAGTAAACAAATTTTCCTAATCTTTCTGTTCAAGCGCCATCTAC | 1.54 |
| GATGATTGTTCTCCCAGCTGATGAATTCTGTAAATCGAGTAAACAAATTTTCCTAATCTTTCTGTTCAAGCGCCATCTAC | 0.538 |
| GATGATTGTTCTCCCAGCTGATGAATTCTTCAAGTCGAGTAAACAAATTTTCCTAATCTTTCTGTTCAAGCGCCATCTAC | 0.196 |
| GATGATTGTTCTCCCAGCTGATGAATTTCCATTGTCGAGTAAACAAATTTTCCTAATCTTTCTGTTCAAGCGCCATCTAC | 0.436 |
| GATGATTGTTCTCCCAGCTGATGAATTTAGACAATCGAGTAAACAAATTTTCCTAATCTTTCTGTTCAAGCGCCATCTAC | 0.862 |
| GATGATTGTTCTCCCAGCTGATGAATTCTGTGCATCGAGTAAACAAATTTTCCTAATCTTTCTGTTCAAGCGCCATCTAC | 1.52 |

| Sequence | binding signal (RPM ratio (pull-down/input)) |
| --- | --- |
| GATGATTGTTCTCCCAGCTGATGAATTCCCTGAGTCGAGTAAACAAATTTTCCTAATCTTTCTGTTCAAGCGCCATCTAC | 0.19 |
| GATGATTGTTCTCCCAGCTGATGAATTTGGCATCTCGAGTAAACAAATTTTCCTAATCTTTCTGTTCAAGCGCCATCTAC | 6.36 |
| GATGATTGTTCTCCCAGCTGATGAATTGCATATTTCGAGTAAACAAATTTTCCTAATCTTTCTGTTCAAGCGCCATCTAC | 1.3 |
| GATGATTGTTCTCCCAGCTGATGAATTGCAGTCCTCGAGTAAACAAATTTTCCTAATCTTTCTGTTCAAGCGCCATCTAC | 0.703 |
| GATGATTGTTCTCCCAGCTGATGAATTAGCTCTTTCGAGTAAACAAATTTTCCTAATCTTTCTGTTCAAGCGCCATCTAC | 0.301 |
| GATGATTGTTCTCCCAGCTGATGAATTAGGTCCCTCGAGTAAACAAATTTTCCTAATCTTTCTGTTCAAGCGCCATCTAC | 0.377 |
| GATGATTGTTCTCCCAGCTGATGAATTGATCGGATCGAGTAAACAAATTTTCCTAATCTTTCTGTTCAAGCGCCATCTAC | 0.215 |
| GATGATTGTTCTCCCAGCTGATGAATTTCCGTTTTCGAGTAAACAAATTTTCCTAATCTTTCTGTTCAAGCGCCATCTAC | 0.438 |
| GATGATTGTTCTCCCAGCTGATGAATTTGGGACATCGAGTAAACAAATTTTCCTAATCTTTCTGTTCAAGCGCCATCTAC | 0.516 |
| GATGATTGTTCTCCCAGCTGATGAATTAACTTGTTCGAGTAAACAAATTTTCCTAATCTTTCTGTTCAAGCGCCATCTAC | 0.888 |
| GATGATTGTTCTCCCAGCTGATGAATTGAAAGCATCGAGTAAACAAATTTTCCTAATCTTTCTGTTCAAGCGCCATCTAC | 0.812 |
| GATGATTGTTCTCCCAGCTGATGAATTCGCTTGATCGAGTAAACAAATTTTCCTAATCTTTCTGTTCAAGCGCCATCTAC | 0.676 |
| GATGATTGTTCTCCCAGCTGATGAATTGTGTCTTTCGAGTAAACAAATTTTCCTAATCTTTCTGTTCAAGCGCCATCTAC | 2.09 |
| GATGATTGTTCTCCCAGCTGATGAATTCAAAAACTCGAGTAAACAAATTTTCCTAATCTTTCTGTTCAAGCGCCATCTAC | 0.241 |
| GATGATTGTTCTCCCAGCTGATGAATTGGGTACGTCGAGTAAACAAATTTTCCTAATCTTTCTGTTCAAGCGCCATCTAC | 0.441 |
| GATGATTGTTCTCCCAGCTGATGAATTATGTGGTTCGAGTAAACAAATTTTCCTAATCTTTCTGTTCAAGCGCCATCTAC | 3.12 |
| GATGATTGTTCTCCCAGCTGATGAATTGGGTTCTTCGAGTAAACAAATTTTCCTAATCTTTCTGTTCAAGCGCCATCTAC | 0.562 |
| GATGATTGTTCTCCCAGCTGATGAATTTACTCTGTCGAGTAAACAAATTTTCCTAATCTTTCTGTTCAAGCGCCATCTAC | 0.348 |
| GATGATTGTTCTCCCAGCTGATGAATTAGTAGCATCGAGTAAACAAATTTTCCTAATCTTTCTGTTCAAGCGCCATCTAC | 1.94 |
| GATGATTGTTCTCCCAGCTGATGAATTACAGGAATCGAGTAAACAAATTTTCCTAATCTTTCTGTTCAAGCGCCATCTAC | 0.247 |
| GATGATTGTTCTCCCAGCTGATGAATTAAGACAATCGAGTAAACAAATTTTCCTAATCTTTCTGTTCAAGCGCCATCTAC | 0.487 |

Source: paper PMC12820563
